# Test results from PubChem BioAssay AID624296 (National Center for Advancing Translational Sciences (NCATS), 2012).
# Screen size: about 350,000 compounds; about 9,900 (2.8%) were called active. Inconclusive results, whose numbers are uncertain, are shown with a selection of clear calls. Calls follow the shape of the dose curve; as a rule, active = well fitted activation curve with a large enough effect; inconclusive = small, poorly fitted or top-dose-only effect; inactive = no such curve, though single readings can be large or run the other way. No potency is given beside an inconclusive call; the fits are too rough.
# Test: A quantitative high throughput screen for small molecules that induce DNA re-replication in MCF 10a normal breast cells. Also: nearly all actives have a fitted effect of over 50% in size.
# Details: MCF 10A DNA re-replication, Hoechst nuclear intensity, 48 h; series mostly up to 46.1 µM
# Potency is read from the fitted curve at half-maximal effect; tags tell the direction and shape of the fitted curve.
row,SMILES,Potency
1,Cc1cccc2cc(C3CC(c4cccs4)=NN3S(C)(=O)=O)c(Cl)nc12 (stereo unspecified),inactive
2,C=CCn1c(SCC(=O)NCc2ccccc2)nnc1-c1ccccc1O,inactive
3,CCOc1[nH]n(-c2ccc(Cl)cc2)c(=O)c1C=Nc1ccc(O)cc1,"inconclusive [activator, partial curve]"
4,CC(C)c1ccc(/C=C/C(=O)NC2CCCCC2)cc1,"inconclusive [activator, partial curve, poor fit]"
5,O=C(CCl)Nc1ccc(N=Nc2ccccc2)cc1,"inconclusive [activator, single point]"
6,COc1ccc(NC(=O)CC2C(=O)N(C)C(=S)N2CCc2ccccc2F)cc1 (stereo unspecified),"inconclusive [activator, partial curve, poor fit]"
7,CC(C)Oc1ccccc1/C=N/n1nnnc1N,inactive
8,Cc1ccc(C2c3c(-c4ccccc4O)n[nH]c3C(=O)N2Cc2ccncc2)cc1 (stereo unspecified),active: 7.31 µM
9,Cc1ccc(NC(=O)N2CCC(C(=O)NCc3ccccc3)CC2)cc1,"inconclusive [activator, full curve, poor fit]"
10,N#CC1=C(N)C(C#N)(C#N)C(c2ccncc2)C2CN(C(=O)OCc3ccccc3)CC=C12 (stereo unspecified),"inconclusive [activator, single point]"
11,Cc1cccc(Nc2nc(N)nc(CCl)n2)c1C,"inconclusive [activator, single point]"
12,O=c1[nH]c2cc3c(cc2cc1C(c1nnnn1Cc1ccccc1)N1CCCCCC1)OCCO3 (stereo unspecified),"inconclusive [activator, partial curve, poor fit]"
13,COc1ccc(NC(=S)Nc2ccc(C)c(Cl)c2)cc1OC,"inconclusive [activator, full curve, poor fit]"
14,CCOC(=O)c1cc(C(C)(C)C)oc1CN,inactive
15,O=C(CN1CCOCC1)Nc1ccccc1Cl,"inconclusive [activator, partial curve]"
16,Cc1c(C(=O)N2CCOCC2)oc2ccccc12,inactive
17,CC(=O)N1CCN(C(=O)c2cccc(S(=O)(=O)N3CCN(c4ccccc4)CC3)c2)CC1,inactive
18,Cc1cc(O)cc(O)c1C=NCc1ccco1,"inconclusive [activator, single point]"
19,COc1ccc(C2c3c(ncn(CCN4CCOCC4)c3=N)Oc3ccc4ccccc4c32)cc1 (stereo unspecified),"inconclusive [activator, single point]"
20,Cc1cc(O)c(C(=O)/C=C/c2ccccc2Br)c(=O)o1,"inconclusive [activator, single point]"
21,CCOC(=O)N1CCN(c2ccccc2O)CC1,inactive
22,O=C(COC(=O)CNC(=O)c1ccc([N+](=O)[O-])o1)Nc1ncc(C(F)(F)F)cc1Cl,active: 16.4 µM
23,COc1cc(NC(=O)COC(=O)CNS(=O)(=O)c2ccc(F)c(F)c2F)cc(OC)c1,inactive
24,COc1cc(C(=O)NNC(=O)C2CC=CCC2C(=O)O)cc(OC)c1OC (stereo unspecified),"inconclusive [activator, single point]"

row,SMILES,Potency
1,CSCC(C)N1CCC(CCC(=O)NC2CC2)CC1 (stereo unspecified),"inconclusive [activator, partial curve, poor fit]"
2,Cc1c(C(=O)NC(Cc2ccccc2)c2nc3ccccc3[nH]2)cccc1[N+](=O)[O-] (stereo unspecified),inactive
3,COc1ccccc1N1C(=O)C2C(C(=O)c3ccccc3)=NN(c3ccc(C)cc3)C2C1=O (stereo unspecified),"inconclusive [activator, single point]"
4,COCCN1CSC(=S)N(Cc2ccco2)C1,"inconclusive [activator, single point]"
5,c1ccc(COc2ccccc2CNCc2cccnc2)cc1,inactive
6,COc1ccc(Cn2c(C)nc3c(c2=O)c2nc4ccccc4nc2n3Cc2ccco2)cc1,active: 18.4 µM
7,CCN(CC)C(=O)[C@H]1CC(CC(=O)NCCN2CCOCC2)C(=O)N2CCc3c([nH]c4ccccc34)[C@]12C (stereo partly specified),inactive
8,Cc1cc2nc(-c3cccc(NC(=O)c4ccc(Br)o4)c3)oc2cc1C,"inconclusive [activator, single point]"
9,Cc1ccc(NC(=O)CCc2nnc3ccc(NCc4ccco4)nn23)cc1F,inactive
10,CC(=O)c1sc(NC(=O)COc2ccc(C(C)C)c(C)c2)nc1C,"inconclusive [activator, full curve, poor fit]"
11,Cc1cc2oc(=O)cc(CSc3nc(N)cc(N)n3)c2cc1C(C)C,inactive
12,Cc1cc(C)cc(-n2ncc3c2CCCC3NC(=O)c2ccccc2N2CCOCC2)c1 (stereo unspecified),"inconclusive [activator, single point]"
13,O=C(NC(=S)Nc1ccc(Cl)cn1)C12CC3CC(CC(C3)C1)C2,"inconclusive [activator, partial curve, poor fit]"
14,CN1CCN(C(=O)C2=C[C@H](c3ccccc3)C[C@H](OCc3ccc(CO)cc3)O2)CC1,inactive
15,CC(C)(C)OC(=O)N1CCCC1C(=O)NCCc1ccccc1 (stereo unspecified),"inconclusive [activator, full curve, poor fit]"
16,CC1(C)Cc2c(sc(NC(=O)c3ccc(S(=O)(=O)N4CCCCCC4)cc3)c2C(N)=O)C(C)(C)N1,"inconclusive [activator, single point]"
17,COc1ccc(C(=O)OCC(=O)c2ccc3[nH]c(=O)[nH]c3c2)c(OC)c1OC,"inconclusive [activator, single point]"
18,c1ccc(-n2nnnc2-c2cccc3ccccc23)cc1,active: 23.1 µM
19,CN(C)S(=O)(=O)c1ccc(N2CCCC2)c(C(=O)N2CCN(S(=O)(=O)c3ccccc3F)CC2)c1,inactive
20,Cc1ccc(Cl)c(OCC(=O)NCC(c2cccs2)N2CCOCC2)c1 (stereo unspecified),"inconclusive [activator, partial curve]"
21,COC1=NC(=C(c2ccccc2)c2ccccc2)OC1=O,inactive
22,CNC(=S)N1N=C(c2ccc(OC)cc2)CC1c1ccc(Cl)cc1Cl (stereo unspecified),inactive
23,COc1ccc(CCNC(=O)c2ccc3c(SCC(=O)O)c4c(nc3c2)CCCC4)cc1OC,"inconclusive [activator, single point]"
24,CCC/C(=N\NC(=O)c1csc(C)c1C)c1cccs1,"inconclusive [activator, single point]"

row,SMILES,Potency
1,Cc1cccc(N2C(=S)N=C(Nc3c(C)cccc3C)C23CCOC(C)(C)C3)c1 (stereo unspecified),inactive
2,O=C(Nc1ccc2oc(-c3ccccc3)nc2c1)c1ccc2c(c1)OCCO2,active: 20.6 µM
3,Cc1ccnc(NC(=O)c2cc(-c3ccc(Cl)s3)nc3ccccc23)c1,"inconclusive [activator, partial curve, poor fit]"
4,CCC(C)NC(=O)CSc1nnc(-c2c[nH]c3ccccc23)o1 (stereo unspecified),inactive
5,CC(=O)c1ccc(OCC(=O)c2cc(C)n(-c3ccc4c(c3)OCO4)c2C)cc1,inactive
6,O=C(O)c1ccc2c(c1)ncn2C1CCCCC1,"inconclusive [activator, full curve, poor fit]"
7,COc1ccc(/C=C(/C#N)C(=O)Nc2ccccc2C)cc1C(=O)O,"inconclusive [activator, partial curve, poor fit]"
8,Cn1c(/C(C#N)=C/c2ccncc2)nc2ccccc21,"inconclusive [activator, single point]"
9,COC(=O)C(CCSC)NS(=O)(=O)c1ccc(Cl)cc1 (stereo unspecified),inactive
10,CCN(c1ccc(C)c(C)c1)S(=O)(=O)c1ccc2c(c1)CCN2C(=O)CCC(=O)O,active: 20.6 µM
11,COc1ccc(CCNC(=O)c2ccc(-c3ccc([N+](=O)[O-])cc3Cl)o2)cc1OC,"inconclusive [activator, single point]"
12,CCC(=O)c1cccc2c1N=CC1=C(CC(C)(C)CC1=O)N2,"inconclusive [activator, single point]"
13,CCC(=O)N1CCN=C1SCc1cccc(C(F)(F)F)c1,inactive
14,CCN(C(=O)c1ccc(S(=O)(=O)N(C)C)cc1)C(C)C(=O)Nc1ccc(C)cc1 (stereo unspecified),"inconclusive [activator, single point]"
15,COc1cc([C@@H]2c3cc4c(cc3[C@@H](O)[C@H]3COC(=O)[C@H]23)OCO4)cc(OC)c1O[Si](C)(C)C(C)(C)C,"inconclusive [activator, single point]"
16,COc1ccccc1N1CCN(CC(O)COCCOc2ccc(Br)cc2)CC1 (stereo unspecified),"inconclusive [activator, partial curve]"
17,Cc1ccc(C(=O)NCc2ccc(N3CCN(C(=O)OC(C)(C)C)CC3)cc2)cc1,inactive
18,CN(CCOc1ccc(Cl)cc1)C(=O)C1CCN(C(=O)c2ccc(F)cc2)CC1,inactive
19,COc1cc(OC)c2c(c1)O/C(=C\c1ccccc1)C2=O,"inconclusive [activator, partial curve, poor fit]"
20,Fc1ccc(C2=NNC(=NCc3ccccc3)SC2)cc1F,"inconclusive [activator, single point]"
21,Cc1ccc(-c2nc3cc(N)ccc3o2)c(C)c1,"inconclusive [activator, single point]"
22,CC1=CC(C)(C)NC(=S)N1c1ccccc1,"inconclusive [activator, full curve, poor fit]"
23,Clc1cc(CSc2ccccc2)nc(-c2ccccc2)n1,"inconclusive [activator, single point]"
